Experimental data: the RNAGym collection of RNA variant scans (doi:10.7554/elife.90254)
The source gives no read counts; variants with many changes may rest on few reads.

B1: LINE1-full (parent)
chain: UACGUAGGUGGUUUUCCCCUGAUAGUGCUAAGGGGGCCUGGAAGUUUGGACUGGGCAGAGCUCAACACAGCGUGGCAAAGUGGCUGUGGCUAGACUGCCUCUCUGGAUUCCUCGUCACUCAGCAGGGCAUCUCUGAGAGAAAUGCC

Variants of: B1
Test: self-cleavage, relative activity (ratio to wild type); higher = more cleavage; in vitro, sequencing; the parent is a self-cleaving ribozyme

Row | Variant | self-cleavage
1 | U14C C99U U134A | 0.41
2 | U20C U39A A42G | 1.28
3 | G25C U104A A142U | 1.4
4 | U20C U29C G34C | 1.72
5 | A57U A67G A69G | 0
6 | A121C A129U A141G | 1.15
7 | U5C U13C A78G | 1.79
8 | U9A U12C A30U A43G C63U A77G A142G | 1.49
9 | C19A G33U U45C U73A | 1.74
10 | U73A U108C U130C | 1.84
11 | G4A A43G U87A U119A U134C | 0.14
12 | U14C U23A U87A | 0.21
13 | U12G U62C U108C | 0.15
14 | U45C A59U A92U | 0.52
15 | G49A U85C U102A | 0.2
16 | U9C U45C A77U | 1.23
17 | A2G A77U U85C A92G | 0.27
18 | A30U A57G A140G | 0.52
19 | U14C U26G G49U A50G C84A U96A G125U | 0.08
20 | G49A U96G A142G | 0.02
21 | U1C A69U U100C | 0.04
22 | U14C U73C U132A A138G | 2.21
23 | U15C G32A U134A | 0.57
24 | U23C A67U U102A | 0

Row | Variant | self-cleavage
25 | G40U U73A C111U U115C G126A U143C | 1.51
26 | A30G A31G G35A U39C A140U | 0.95
27 | U104C U109C A138G A142U | 0.85
28 | U13C C37U A43G G55A | 0.16
29 | U47C U108C C120U | 1.58
30 | A59U A67U A94G U119C U130C | 0
31 | A30G U52A U115C A121G | 0
32 | U26A U47A U104C A121G | 0.26
33 | G55A U62G A136G | 0
34 | U15C U73C U100C U132C | 1.62
35 | U29A U119A G125U | 1.82
36 | A24G U47C C63U A79G U104A | 0.94
37 | G7U A43G A138G | 1.16
38 | U14C A69U A79U U96A | 0.12
39 | U1C G127U U132C U134C | 1.02
40 | U26A U62C G74A A129G | 0.03
41 | A42G A59G U115C | 0.32
42 | A67U U73A U100C | 0.61
43 | U45A G75U U134A | 0.35
44 | U9G A79G A94G A140G | 1.02
45 | C51U U73C U87C A138G | 0.15
46 | G106A U108C U115A | 1.64
47 | U45C U119A U143C | 0.9
48 | U15A A24U A129C | 0.94

Row | Variant | self-cleavage
49 | A94U U102C A141G A142G | 0.29
50 | U9A U20C A121U | 1.24
51 | U1A U20C U85C C131U U132C | 0.37
52 | U15C A42G A64G | 0.66
53 | U5A G35U A64G A67U | 0.02
54 | A65U A67G A107G A117U | 0
55 | U109C U134C G137A | 0.84
56 | A43G A50G U96A U108C G126A | 0
57 | U13C A107U G144A | 1.43
58 | A2G U15C G41A A69U | 0.34
59 | A31U A57U A65G A78G C90A | 0.02
60 | A6G U87A A92G | 0.12
61 | A2G U14C U15C C71U A129G A136G | 1.25
62 | G7A U23G U46A U73C | 1.46
63 | U15C A121G G126A | 1.87
64 | A78G C113U U134C | 1.18
65 | U15A C18U U104C A136G A141G | 0
66 | U26A U115C A140U | 1.59
67 | A30U A43G G75A U112C G135A | 0.35
68 | U112C C123A C131U A140G | 1.13
69 | A2C U52A A59G A136G | 0.1
70 | U9A U13C U45C A92G U112C | 0
71 | A77U U112C C123U | 1.15
72 | A78G A138G A141G | 1.55

Row | Variant | self-cleavage
73 | U102A A117U C145U | 0.9
74 | A2U U102C U115A | 0.51
75 | U12C U15C A69U A77G U132C | 0.2
76 | A2U A42G A59U | 0.57
77 | U13A U62C A129G U132C | 0
78 | C68U U81A A142G | 0.18
79 | C38U U73C U85C | 0.11
80 | G36U A94G A121G G135A A136U | 0.12
81 | A67G A94G U100A | 0
82 | U15C A65G U102A | 0
83 | A2G C76G U130A | 1.57
84 | A77U A124G U143A | 0.5
85 | U15C U26G U134G | 1.05
86 | A43G A77U U100C A138G | 2.12
87 | U20C A31G G35A G54A U143A | 0.63
88 | U13C U87A U134C A136G | 0.14
89 | A65G A67U A69G U73C U91A A124U | 0
90 | U14A U46C U52A U87A | 0.09
91 | C28A A107G U109C | 0.61
92 | U14C U115A A124G | 1.54
93 | U39C U47G A77G | 1.47
94 | A78U U85C A136U A141G | 0.13
95 | G58U U85C U109C | 0.03
96 | G41U U62A A64U A138G | 0.02

Row | Variant | self-cleavage
97 | G7U A67G A140G | 0.77
98 | U46C A64U U115C | 0.71
99 | A22G A31G G93U U96C A142G | 0.21
100 | U23G U87C U130C | 0.56
101 | U15A U47A U73C U119C | 0.88
102 | A57U A79U U104C | 0.24
103 | U12G U13C U96C | 0
104 | U62A U73A U112C | 0.06
105 | A42G U45C U46C | 2.12
106 | G48A A78G C99A | 0.31
107 | G53A U73A U81C U102C | 1.39
108 | A64G U112C U132C | 0
109 | U14C A22G U39A A43G A117G | 0
110 | A57G A65G A67G | 0
111 | U62C U85C U130A | 0.09
112 | U26A A78G A121G A141G | 0
113 | A69G U115C A136G | 0.4
114 | U13C A59G A92G A129G | 0
115 | U45C G53A U96C | 0.09
116 | U85C U119C A142U | 0.19
117 | U14A A77G A129G | 2.63
118 | U13C A69U A117U | 0.06
119 | U13A A67U A117G | 0
120 | C28G A78G A79U A136U U143C | 0.86

Row | Variant | self-cleavage
121 | G10A A50G A107G | 1.53
122 | G11A A50C A64U A77G | 0.76
123 | A50G U52C U132A | 1.15
124 | U9C A31U A43G | 0.85
125 | G125A A140G A142G | 2.51
126 | U23C U96A A121C | 0
127 | A6G G32A A57G A77G | 0.5
128 | U20C U47C U96A A121G | 0.16
129 | U9C U39C A77C A140G | 0.28
130 | U39A U109C A117G | 0.44
131 | U46C U100A U134C | 1.64
132 | U9C U81A A142G | 2.5
133 | A30G A67C U102A | 0.27
134 | U47A U119A U134C | 1.66
135 | U45A A69G U81A | 0.28
136 | U13C A67G U85C | 0.14
137 | A69G G74A U81C A121C | 0.51
138 | G82A A117G U130C | 2.3
139 | A69U U132A U143A | 0.07
140 | U13A U26A U104A | 0.76
141 | U46C A59G G74U U85A U108C U130A A142G | 0.17
142 | U14C U47C U96G | 0
143 | U9C U20C U143A | 2.35
144 | U5C U12C U20A U96C C128U | 1.12

Row | Variant | self-cleavage
145 | U14C G33A A69U | 0.1
146 | U15A G74A U85A A140G | 0.06
147 | U15C U23C G60A U73C | 0.18
148 | U12C A117G A129U | 1.43
149 | U15C U45C A57U U85A | 0.04
150 | U26C U52A A79G C116U U130C A138G | 0.51
151 | A50G U115C U119A | 1.25
152 | A24U A50G U112C | 2.04
153 | U5C A79C U96C A136U | 1.97
154 | U12G A78G U96A A129G | 0
155 | A77U G97A A129G A136U | 0.09
156 | U81C A141G A142G | 1.64
157 | U13C G33A U109C | 0.33
158 | C3U A64G A94G G137U | 0.26
159 | G33U U96C A121U | 0.1
160 | U9A A77C G89A A129U | 0.14
161 | U13C U20C A138G | 0.53
162 | U5A U14A C71U | 0.9
163 | A79G A94U A136U | 0.37
164 | U12C U47C A50C | 2
165 | G4A A43G U46C G75A | 0.74
166 | G35U G44A U47C A94U A136U | 0.23
167 | U14C U46A A142G | 1.25
